This experiment deals with HT-29 cells. Put plainly: Cell binding assay: membrane-bound and internalised fractions of radiolabelled mAb. The class given is cell-based. Particulars: 1 h and 2 h. The method, then: HT-29 cells were seeded at a density of 7.5×10^2 cells/well in a 24-well plate with a final number of approximately 2.5×10^5 cells per well. The radiolabelled mAbs (Compound D2-mAb[^89Zr], Compound D2-mAb[^177Lu], DFOB-mAb[^89Zr], DOTA-mAb[^177Lu]) were diluted in serum-free (SF) cell growth medium (0.02 μg, 15 mCi) and 100 μL of each solution was added to each well. The cells were incubated in triplicate for 0.5, 1, and 2 hours at 37° C. in a 5% CO2 atmosphere in a humidified incubator.
At each time point, internalization was halted by removing the growth medium and washing the cells twice with ice-cold PBS (1×, pH 7.4, 200 μL). […] The buffer was collected from each well and the radioactivity measured in a gamma counter to determine the membrane-bound fraction. […]
Cells were treated with sodium hydroxide (1N, 200 μL) for 30 minutes to lyse the cells, internalised fractions collected, and the radioactivity measured of the subsequent fractions in a gamma-counter.
Cells were counted after the assay from 4 non-experimental wells and the cell numbers were averaged to obtain an estimate of the number of cells per well. Non-specific binding and internalization were then determined by co-incubating cells with non-radiolabelled (2 μg, 50 μL) and radio-labelled (0.02 μg, 50 μL) compound for each well, and repeating the above procedures for membrane-bound and internalised fractions.

B1: Compound D2-mAb[^177Lu]: Compound D2-Girentuximab conjugate radiolabelled with 177Lu (conjugate, chains of the INN, looked up)
heavy: DVKLVESGGGLVKLGGSLKLSCAASGFTFSNYYMSWVRQTPEKRLELVAAINSDGGITYYLDTVKGRFTISRDNAKNTLYLQMSSLKSEDTALFYCARHRSGYFSMDYWGQGTSVTVSS[human IgG1 constant region not given here]
light: DIVMTQSQRFMSTTVGDRVSITCKASQNVVSAVAWYQQKPGQSPKLLIYSASNRYTGVPDRFTGSGSGTDFTLTISNMQSEDLADFFCQQYSNYPWTFGGGTKLEIKRTVAAPSVFIFPPSDEQLKSGTASVVCLLNNFYPREAKVQWKVDNALQSGNSQESVTEQDSKDSTYSLSSTLTLSKADYEKHKVYACEVTHQGLSSPVTKSFNRGEC
modifications: Compound D2 chelator, 177Lu
notes: Compound D2-Girentuximab conjugate radiolabelled with 177Lu
For the molecule B1, the “fraction of membrane bound or internalised radiolabelled mAb” value (Compound D2-mAb[177Lu] compared with DOTA-mAb[177Lu]) is “similar”.

B2: Compound D2-mAb[^89Zr]: Compound D2-Girentuximab conjugate radiolabelled with 89Zr (conjugate, chains of the INN, looked up)
heavy: B1 heavy
light: B1 light
modifications: Compound D2 chelator, 89Zr
notes: Compound D2-Girentuximab conjugate radiolabelled with 89Zr
B2: the “fraction of membrane bound or internalised radiolabelled mAb” value (Compound D2-mAb[89Zr] compared with DFOB-mAb[89Zr]) is on record as “similar”.

Source of the values: US20250025582A1, “LIGANDS AND THEIR USE” (THE UNIVERSITY OF SYDNEY, priority 2020, published 2025).
